# Measurements from the supplement of paper PMC9446081.
# In all, about 39,000 compounds went through this assay and about 220 (0.56%) showed activity. This is one part of the list.
# Tested on: Escherichia coli K-12 BW25113
# Test: relative growth (OD600 normalised to plate interquartile mean) (fraction); higher = less growth inhibition, active = 0.2 or less
# Settings: 50 µM; LB; incubation time: overnight (16-24 h)
# 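Note: static incubation at 37 °C against the wild-type strain, values averaged over two biological replicates.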
row,Structure (SMILES),relative growth
1,O=C(O)CNS(=O)(=O)c1ccccc1F,inactive: 1.05
2,Cc1noc(C)c1NC(=O)N(C)C[C@@H]1Oc2ncc(C#CCN(C)C)cc2C(=O)N([C@H](C)CO)C[C@H]1C,inactive: 0.999
3,O=C(C[C@H]1CC[C@@H]2[C@H](COC[C@@H](O)CN2S(=O)(=O)c2ccc(Oc3ccccc3)cc2)O1)NCCN1CCCCC1,inactive: 1.01
4,CNC(=O)c1ccc2c(c1)OCO2,inactive: 1.03
5,O=C(C[C@H]1C=C[C@@H](NC(=O)c2ccncc2)[C@H](CO)O1)NCc1ccncn1,inactive: 1.02
6,C[C@@H]1CN([C@H](C)CO)C(=O)c2cccc(NC(=O)NC3CCCCC3)c2O[C@H]1CN(C)C(=O)Nc1cccc2ccccc12,inactive: 0.983
7,c1ccc(Oc2ccccc2)cc1,inactive: 1.04
8,COc1ccc(-c2cnc3c(c2)C(=O)N([C@H](C)CO)C[C@@H](C)[C@H](CN(C)C(=O)Cc2ccccn2)O3)cc1,inactive: 1.01
9,Cc1noc(C)c1NC(=O)Nc1ccc2c(c1)C(=O)N([C@@H](C)CO)C[C@H](C)[C@@H](CN(C)Cc1ccncc1)OCCCC[C@@H](C)O2,inactive: 0.964
10,O=C(CN1CCOCC1)NCC[C@@H]1CC[C@H](NC(=O)c2ccccc2F)[C@@H](CO)O1,inactive: 0.979
11,COc1ccc(S(=O)(=O)N(C)C[C@@H]2Oc3cc(Br)ccc3S(=O)(=O)N([C@H](C)CO)C[C@@H]2C)cc1,inactive: 1.04
12,COc1ccc(S(=O)(=O)N(C)C[C@H]2Oc3ccc(NC(=O)c4ccncc4)cc3CC(=O)N([C@H](C)CO)C[C@H]2C)cc1,inactive: 0.984
13,C[C@@H]1CCCCO[C@@H](CN(C)S(C)(=O)=O)[C@H](C)CN([C@H](C)CO)C(=O)c2cc(NS(C)(=O)=O)ccc2O1,inactive: 0.974
14,CN1C(=O)c2cc(NC(=O)c3ccc(F)c(F)c3)ccc2OC[C@H]2O[C@@H](CC(=O)N3CCOCC3)CC[C@H]21,inactive: 0.933
15,CO[C@@H](CN(C)S(=O)(=O)c1ccc(Cl)cc1)[C@H](C)CN([C@H](C)CO)S(=O)(=O)c1cccc(Cl)c1,inactive: 1.02
16,C[C@H]1CCCCO[C@@H](CN(C)C(=O)Nc2ccc(F)cc2)[C@@H](C)CN([C@@H](C)CO)C(=O)c2cc(NS(=O)(=O)c3ccccc3)ccc2O1,inactive: 1.01
17,C[C@@H](O)C#Cc1cnc2c(c1)C(=O)N([C@@H](C)CO)C[C@H](C)[C@@H](CN(C)C(=O)CN1CCOCC1)O2,inactive: 1.03
18,C[C@@H]1CN([C@@H](C)CO)C(=O)Cc2cc(NC(=O)Cn3cnnn3)ccc2O[C@@H]1CN(C)C(=O)Nc1ccc2c(c1)OCO2,inactive: 0.988
19,COc1ccc(NC(=O)Nc2ccc3c(c2)C(=O)N([C@H](C)CO)C[C@H](C)[C@H](CN(C)Cc2ccc(Oc4ccccc4)cc2)O3)cc1,inactive: 1.01

row,Structure (SMILES),relative growth
1,C[C@@H]1CN([C@H](C)CO)C(=O)Cc2cc(NC(=O)Cc3ccccc3)ccc2O[C@@H]1CN(C)Cc1ccc(C(F)(F)F)cc1,inactive: 1.03
2,C[C@@H]1CN([C@@H](C)CO)C(=O)c2cc(NC(=O)Nc3cccc4ccccc34)ccc2O[C@@H](C)CCCCO[C@H]1CN(C)Cc1ccc(C(F)(F)F)cc1,inactive: 1.01
3,C[C@@H]1CCCCO[C@H](CN(C)Cc2ccncc2)[C@@H](C)CN([C@H](C)CO)C(=O)c2cc(NC(=O)CCCCCC(=O)Nc3ccccc3N)ccc2O1,inactive: 1.01
4,CCO[C@@H]1OC(C(=O)N2CCN(Cc3ccc4c(c3)OCO4)CC2)=C[C@H](c2ccc(C(F)(F)F)cc2)[C@H]1CCCOC(=O)NCCCCCC(=O)NO,inactive: 0.994
5,O=C(C[C@H]1C[C@@H]2c3cc(NC(=O)Nc4ccccc4)ccc3O[C@@H]2[C@H](CO)O1)NCCN1CCCCC1,inactive: 0.976
6,C[C@H]1CN([C@@H](C)CO)C(=O)c2cccc(NS(=O)(=O)c3ccc(F)cc3)c2O[C@@H]1CN(C)Cc1ccc(Cl)c(Cl)c1,inactive: 1.02
7,C[C@@H]1CN([C@@H](C)CO)C(=O)c2cc(NC(=O)Nc3ccc(C(F)(F)F)cc3)ccc2O[C@@H](C)CCCCO[C@H]1CN(C)Cc1ccc2c(c1)OCO2,inactive: 0.991
8,CC(C)NC(=O)N(C)C[C@H]1Oc2ccc(NS(=O)(=O)c3ccccc3)cc2CC(=O)N([C@@H](C)CO)C[C@@H]1C,inactive: 0.972
9,O=C(Cn1cc([N+](=O)[O-])cn1)n1cccn1,inactive: 0.966
10,C[C@@]1(NC(=O)Cc2ccc(S(=O)(=O)N3CCOCC3)s2)CCS(=O)(=O)C1,inactive: 1.01
11,C[C@H](CO)N1C[C@H](C)[C@@H](CN(C)S(=O)(=O)c2cn(C)cn2)Oc2c(NC(=O)Nc3ccc4c(c3)OCO4)cccc2C1=O,inactive: 1.02
12,C=CCNC1=C2C[C@H](C)C[C@H](OC)[C@@H](O)[C@H](C)/C=C(\C)[C@H](OC(N)=O)[C@H](OC)/C=C/C=C(\C)C(=O)NC(=CC1=O)C2=O,inactive: 0.981
13,CC(C)N1CC[C@@H](CNCc2ccc(Oc3ccccc3)cc2)Oc2c(NC(=O)c3ccncc3)cccc2C1=O,inactive: 1.03
14,C[C@@H]1CCCCO[C@H](CN(C)C(=O)c2ccncc2)[C@@H](C)CN([C@H](C)CO)C(=O)c2cc(NC(=O)NC3CCCCC3)ccc2O1,inactive: 0.989
15,Cc1noc(C)c1NC(=O)Nc1ccc2c(c1)C(=O)N([C@H](C)CO)C[C@@H](C)[C@H](CN(C)S(=O)(=O)c1cccs1)OCCCC[C@H](C)O2,inactive: 0.988
16,C[C@@H]1CCCCO[C@H](CN(C)C(=O)Nc2ccc(C(F)(F)F)cc2)[C@@H](C)CN([C@@H](C)CO)C(=O)c2cc(NS(=O)(=O)c3ccc(Cl)cc3)ccc2O1,inactive: 1
17,CC(=O)NCCCCCC(=O)O,inactive: 0.987
18,C[C@@H]1CN([C@H](C)CO)C(=O)Cc2cc(NC(=O)Cc3cn(C)c4ccccc34)ccc2O[C@H]1CN(C)CC1CCCCC1,inactive: 1.02
19,C[C@@H]1CN([C@H](C)CO)C(=O)Cc2cc(NS(C)(=O)=O)ccc2O[C@@H]1CN(C)S(=O)(=O)c1ccc(F)cc1,inactive: 1.01

row,Structure (SMILES),relative growth
1,C[C@@H]1CN([C@@H](C)CO)C(=O)c2cccc(NC(=O)c3cnccn3)c2O[C@H]1CN(C)CC1CCCCC1,inactive: 1
2,C[C@H]1CN([C@@H](C)CO)C(=O)Cc2cc(NS(=O)(=O)c3cccs3)ccc2O[C@@H]1CN(C)S(=O)(=O)c1cn(C)cn1,inactive: 1.02
3,O=C(NO)c1ccc(C(=O)N/N=C/[C@H](O)[C@@H](O)[C@H](O)[C@H](O)CO[C@H]2O[C@H](CO)[C@H](O)[C@H](O)[C@H]2O)cc1,inactive: 1
4,CC(C)(C)OC(=O)NC(=NCCCn1cc(-c2cccc(/C=C/C(=O)NO)c2)nn1)NC(=O)OC(C)(C)C,inactive: 1.03
5,COc1ccc(S(=O)(=O)N[C@H]2C=C[C@@H](CC(=O)N3CCC(Cc4ccccc4)CC3)O[C@H]2CO)cc1,inactive: 1
6,Cc1ccc(S(=O)(=O)Nc2ccc3c(c2)C(=O)N([C@H](C)CO)C[C@H](C)[C@H](CN(C)Cc2ccc(C(F)(F)F)cc2)O3)cc1,inactive: 1.02
7,C/C=C/c1cccc(-c2nc(C(=O)NCc3ccc(OC)cc3)cc3c2[C@@H](CCO)N([S@](=O)C(C)(C)C)C3)c1,inactive: 1.01
8,CCCC#Cc1ccc2c(c1)O[C@H](CN(C)Cc1ccc3c(c1)OCO3)[C@H](C)CN([C@@H](C)CO)S2(=O)=O,inactive: 0.991
9,C[C@@H]1CN([C@H](C)CO)C(=O)c2cc(NC(=O)CCN3CCOCC3)ccc2O[C@@H]1CN(C)Cc1ccc(C(=O)O)cc1,inactive: 1.01
10,C[C@@H]1CN([C@H](C)CO)C(=O)Cc2cc(NS(C)(=O)=O)ccc2O[C@H]1CN(C)C(=O)NC1CCCCC1,inactive: 0.996
11,C[C@@H]1CN([C@H](C)CO)C(=O)Cc2cc(NC(=O)CCCN(C)C)ccc2O[C@H]1CN(C)S(=O)(=O)c1ccccc1,inactive: 0.948
12,C[C@@H]1CCCCO[C@H](CN(C)S(=O)(=O)c2ccc(Cl)cc2)[C@H](C)CN([C@@H](C)CO)C(=O)c2cc(NC(=O)Nc3ccc4c(c3)OCO4)ccc2O1,inactive: 1.03
13,C[C@H]1CN([C@@H](C)CO)C(=O)c2cc(NC(=O)CCCN(C)C)ccc2O[C@@H]1CN(C)S(=O)(=O)c1ccccc1,inactive: 0.979
14,C[C@H]1CN([C@@H](C)CO)C(=O)c2ccccc2-c2ccccc2CO[C@H]1CN(C)C(=O)Nc1ccc(-c2ccccc2)cc1,inactive: 1.04
15,CN(C)C(=O)C[C@@H]1CC[C@@H](NC(=O)C2CC2)[C@@H](CO)O1,inactive: 0.992
16,C[C@@H]1CN([C@H](C)CO)C(=O)Cc2cc(NS(=O)(=O)c3ccc(F)cc3)ccc2O[C@H]1CN(C)Cc1ccc(Oc2ccccc2)cc1,inactive: 0.988
17,COc1ccc(NC(=O)Nc2ccc3c(c2)C(=O)N([C@H](C)CO)C[C@@H](C)[C@H](CN(C)Cc2ccccc2)OCCCC[C@@H](C)O3)cc1,inactive: 0.983
18,C[C@@H]1CN([C@@H](C)CO)C(=O)c2cccc(NC(=O)c3ccc(-c4nccs4)cc3)c2O[C@H]1CN(C)Cc1ccc(C(=O)O)cc1,inactive: 1
19,CO[C@H](C(=O)[C@@H](O)[C@@H](C)O)[C@@H]1Cc2cc3cc(O[C@H]4C[C@@H](O[C@H]5C[C@@H](O)[C@H](O)[C@@H](C)O5)[C@@H](O)[C@@H](C)O4)c(C)c(O)c3c(O)c2C(=O)[C@H]1O[C@H]1C[C@@H](O[C@H]2C[C@@H](O[C@H]3C[C@](C)(O)[C@H](O)[C@@H](C)O3)[C@H](O)[C@@H](C)O2)[C@H](O)[C@@H](C)O1,inactive: 1.02
